Literature values, collected in article PMC11006913.
The list shows a part of the results.

biological target: NKX2-5 K183E (Homo sapiens) (UniProt P52952); settings: PBM; conditions not shown; double strand, one strand shown; scale: upbm affinity estimate (log intensity, higher = more binding, comparable within an allelic series)

| Sequence | binding signal |
| --- | --- |
| CGGACCGC [8-mer CGGACCGC] | 10.1 |
| CACAAGTG [8-mer CACAAGTG] | 11.5 |
| CTGCGGGA [8-mer CTGCGGGA] | 10.2 |
| ATTAAGTG [8-mer ATTAAGTG] | 11.7 |
| CACTTCAA [8-mer CACTTCAA] | 11.5 |
| CCGGTCAG [8-mer CCGGTCAG] | 9.98 |
| AAGTGTGC [8-mer AAGTGTGC] | 10.9 |
| CACTTCAG [8-mer CACTTCAG] | 11.4 |
| AACAGGCG [8-mer AACAGGCG] | 10.3 |
| ATACTTCA [8-mer ATACTTCA] | 11 |
| CGGGTCGC [8-mer CGGGTCGC] | 10 |
| ACTTAAGT [8-mer ACTTAAGT] | 11.3 |
| ACCACGGC [8-mer ACCACGGC] | 10.3 |
| AGGCTCGG [8-mer AGGCTCGG] | 10.2 |
| CGGCCCCG [8-mer CGGCCCCG] | 10.1 |
| CAGGGAAG [8-mer CAGGGAAG] | 10.2 |
| ACCCGGTC [8-mer ACCCGGTC] | 10 |
| CCAGCACC [8-mer CCAGCACC] | 10.1 |
| AGCGGCAG [8-mer AGCGGCAG] | 10.2 |
| ACACTTAT [8-mer ACACTTAT] | 11.5 |

| Sequence | binding signal |
| --- | --- |
| CCGGCGCC [8-mer CCGGCGCC] | 10.1 |
| CCCGACCG [8-mer CCCGACCG] | 10 |
| GCTGGGTA [8-mer GCTGGGTA] | 10.3 |
| CCGGACAG [8-mer CCGGACAG] | 10.3 |
| AAGCACTT [8-mer AAGCACTT] | 11.3 |
| GTACTTGA [8-mer GTACTTGA] | 11.2 |
| AAGTGGTA [8-mer AAGTGGTA] | 11.9 |
| AAACCGGT [8-mer AAACCGGT] | 10.3 |
| AAGTGGTC [8-mer AAGTGGTC] | 11.7 |
| ATACTTGA [8-mer ATACTTGA] | 11.2 |
| AATAAGTG [8-mer AATAAGTG] | 11.6 |
| ATAAGTGG [8-mer ATAAGTGG] | 12.5 |
| CAGCCTTC [8-mer CAGCCTTC] | 10.1 |
| CGGTGGAA [8-mer CGGTGGAA] | 10.1 |
| CTTCCCCC [8-mer CTTCCCCC] | 10.2 |
| CTGGACGC [8-mer CTGGACGC] | 10.1 |
| CCGTGGGC [8-mer CCGTGGGC] | 9.9 |
| CCCCGTGC [8-mer CCCCGTGC] | 10.2 |
| CCACTTAC [8-mer CCACTTAC] | 12.1 |

biological target: NKX2-5 R161P (Homo sapiens) (UniProt P52952); settings: PBM; conditions not shown; double strand, one strand shown; scale: upbm affinity estimate (log intensity, higher = more binding, comparable within an allelic series)

| Sequence | binding signal |
| --- | --- |
| CGGACCGC [8-mer CGGACCGC] | 10.2 |
| CACAAGTG [8-mer CACAAGTG] | 12.6 |
| CTGCGGGA [8-mer CTGCGGGA] | 10.2 |
| ATTAAGTG [8-mer ATTAAGTG] | 12.7 |
| CACTTCAA [8-mer CACTTCAA] | 12.6 |
| CCGGTCAG [8-mer CCGGTCAG] | 10.1 |
| AAGTGTGC [8-mer AAGTGTGC] | 12 |
| CACTTCAG [8-mer CACTTCAG] | 12.5 |
| AACAGGCG [8-mer AACAGGCG] | 10.4 |
| ATACTTCA [8-mer ATACTTCA] | 11.9 |
| CGGGTCGC [8-mer CGGGTCGC] | 9.94 |
| ACTTAAGT [8-mer ACTTAAGT] | 12.7 |
| ACCACGGC [8-mer ACCACGGC] | 10.4 |
| AGGCTCGG [8-mer AGGCTCGG] | 10.2 |
| CGGCCCCG [8-mer CGGCCCCG] | 10 |
| CAGGGAAG [8-mer CAGGGAAG] | 10.1 |
| ACCCGGTC [8-mer ACCCGGTC] | 10.1 |
| CCAGCACC [8-mer CCAGCACC] | 10.3 |
| AGCGGCAG [8-mer AGCGGCAG] | 10.2 |
| ACACTTAT [8-mer ACACTTAT] | 12.8 |

| Sequence | binding signal |
| --- | --- |
| CCGGCGCC [8-mer CCGGCGCC] | 10.4 |
| CCCGACCG [8-mer CCCGACCG] | 10 |
| GCTGGGTA [8-mer GCTGGGTA] | 10.4 |
| CCGGACAG [8-mer CCGGACAG] | 10.2 |
| AAGCACTT [8-mer AAGCACTT] | 12.7 |
| GTACTTGA [8-mer GTACTTGA] | 13 |
| AAGTGGTA [8-mer AAGTGGTA] | 12.7 |
| AAACCGGT [8-mer AAACCGGT] | 10.3 |
| AAGTGGTC [8-mer AAGTGGTC] | 12.6 |
| ATACTTGA [8-mer ATACTTGA] | 12.4 |
| AATAAGTG [8-mer AATAAGTG] | 12.6 |
| ATAAGTGG [8-mer ATAAGTGG] | 13.3 |
| CAGCCTTC [8-mer CAGCCTTC] | 10.3 |
| CGGTGGAA [8-mer CGGTGGAA] | 10.3 |
| CTTCCCCC [8-mer CTTCCCCC] | 10.3 |
| CTGGACGC [8-mer CTGGACGC] | 10.2 |
| CCGTGGGC [8-mer CCGTGGGC] | 9.96 |
| CCCCGTGC [8-mer CCCCGTGC] | 10.2 |
| CCACTTAC [8-mer CCACTTAC] | 13.1 |

biological target: NKX2-5 R190C (Homo sapiens) (UniProt P52952); settings: PBM; conditions not shown; double strand, one strand shown; scale: upbm affinity estimate (log intensity, higher = more binding, comparable within an allelic series)

| Sequence | binding signal |
| --- | --- |
| CGGACCGC [8-mer CGGACCGC] | 10.1 |
| CACAAGTG [8-mer CACAAGTG] | 10.8 |
| CTGCGGGA [8-mer CTGCGGGA] | 10.3 |
| ATTAAGTG [8-mer ATTAAGTG] | 11 |
| CACTTCAA [8-mer CACTTCAA] | 10.8 |
| CCGGTCAG [8-mer CCGGTCAG] | 10.1 |
| AAGTGTGC [8-mer AAGTGTGC] | 10.7 |
| CACTTCAG [8-mer CACTTCAG] | 10.6 |
| AACAGGCG [8-mer AACAGGCG] | 10.4 |
| ATACTTCA [8-mer ATACTTCA] | 10.8 |
| CGGGTCGC [8-mer CGGGTCGC] | 10.1 |
| ACTTAAGT [8-mer ACTTAAGT] | 10.8 |
| ACCACGGC [8-mer ACCACGGC] | 10.4 |
| AGGCTCGG [8-mer AGGCTCGG] | 10.2 |
| CGGCCCCG [8-mer CGGCCCCG] | 9.92 |
| CAGGGAAG [8-mer CAGGGAAG] | 10.2 |
| ACCCGGTC [8-mer ACCCGGTC] | 10 |
| CCAGCACC [8-mer CCAGCACC] | 10 |
| AGCGGCAG [8-mer AGCGGCAG] | 10.2 |
| ACACTTAT [8-mer ACACTTAT] | 11.1 |

| Sequence | binding signal |
| --- | --- |
| CCGGCGCC [8-mer CCGGCGCC] | 10.1 |
| CCCGACCG [8-mer CCCGACCG] | 10.1 |
| GCTGGGTA [8-mer GCTGGGTA] | 10.4 |
| CCGGACAG [8-mer CCGGACAG] | 10.3 |
| AAGCACTT [8-mer AAGCACTT] | 10.7 |
| GTACTTGA [8-mer GTACTTGA] | 10.8 |
| AAGTGGTA [8-mer AAGTGGTA] | 10.8 |
| AAACCGGT [8-mer AAACCGGT] | 10.3 |
| AAGTGGTC [8-mer AAGTGGTC] | 10.5 |
| ATACTTGA [8-mer ATACTTGA] | 10.9 |
| AATAAGTG [8-mer AATAAGTG] | 11 |
| ATAAGTGG [8-mer ATAAGTGG] | 11.1 |
| CAGCCTTC [8-mer CAGCCTTC] | 10.1 |
| CGGTGGAA [8-mer CGGTGGAA] | 10.2 |
| CTTCCCCC [8-mer CTTCCCCC] | 10 |
| CTGGACGC [8-mer CTGGACGC] | 10.2 |
| CCGTGGGC [8-mer CCGTGGGC] | 10 |
| CCCCGTGC [8-mer CCCCGTGC] | 10.2 |
| CCACTTAC [8-mer CCACTTAC] | 10.8 |
